The source of these data is ChEMBL document CHEMBL4888484, “Replenishing the malaria drug discovery pipeline: Screening and hit evaluation of the MMV Hit Generation Library 1 (HGL1) against asexual blood stage Plasmodium falciparum ,using a nano luciferase reporter read-out” (2022).

Screen size: about 150,000 compounds; about 540 (0.36%) showed an effect of 50% or more. The list shows a part of the results.

The assay relates to Plasmodium falciparum. Kind of assay: Primary screen in NF54 nanoGlo assay, in single point, at 2uM, 72h; a lower Z score goes with more inhibition. The format is functional, Erythrocyte. Particulars: timepoint 72 hour.
By % Inhibition is commonly meant the drop in the measured response relative to a control, in per cent. In the case of `O=C(Cn1c(=O)[nH]c2c(-c3ccccc3F)c[nH]c2c1=O)N1CCN(c2ccccc2)CC1`, the “% Inhibition” value amounted to 8% and the Z score is listed as -1.14.

For `CN(Cc1ncc(Br)cn1)c1ncnc2c1CCCC2`, the “% Inhibition” value is on record as -6% and the Z score was determined as 1.

Turning to `CC1(C)C(=O)Nc2ccc(C(=O)N3CCC(S(N)(=O)=O)CC3)cc21`, the “% Inhibition” value is on record as 17% and the Z score was -2.13.

`CC(C)(C)c1nnc(CN2CCC[C@H]2c2ccsc2)o1`: the “% Inhibition” value was -8% and the Z score was determined as 1.2.

As to `Cc1nnc(NC(=O)C2CC(=O)N(C)C2c2cccnc2)s1` (stereo unspecified), the “% Inhibition” value is recorded as -1% and the Z score is on record as 0.13.

`O=C(NC[C@@H](c1ccco1)N1CCCC1)c1cccnc1O`: the “% Inhibition” value was found to be 9% and the Z score is listed as -0.78.

As for `COc1ccccc1CCNC(=O)c1n[nH]c2c1CCCCC2`, the “% Inhibition” value is 2% and the Z score is recorded as -0.25.

Turning to `O=C(c1cnn(-c2cccc(Cl)c2)c1C(F)(F)F)N1CCN(CCCOCC(F)(F)F)CC1`, the “% Inhibition” value was -2% and the Z score is reported as 0.28.

As for `O=C(NCCn1ccnn1)[C@@H]1[C@H]2[C@@H]3CC[C@@H](C3)[C@@H]12`, the “% Inhibition” value was -10% and the Z score is recorded as 1.1.

`Cc1ccc(F)cc1CC(=O)N1C[C@@H]2CC[C@H]1CN(C(=O)c1ccccn1)C2`: the “% Inhibition” value was -1% and the Z score was determined as 0.11.

Regarding `CCc1nn2c(-c3cccnc3)ccnc2c1-c1ccc(Cl)cc1`, the “% Inhibition” value is listed as -3% and the Z score is 0.36.

In the case of `CC(=O)NCC1CCN(c2ncc(F)c(N(C)C)n2)CC1`, the “% Inhibition” value was -13% and the Z score is 1.27.

Regarding `Cc1ccc(NC(=O)Nc2ccn(CCC#N)n2)cc1-c1ncco1`, the “% Inhibition” value was found to be 29% and the Z score is -3.24.

As to `c1cc(-c2nnn(C3CCCCC3)c2NC2CCCCC2)[nH]n1`, the “% Inhibition” value is -4% and the Z score was found to be 0.7.

Consider `Cc1ccc2ncccc2c1-c1cncc(C(N)=O)c1`, for which the “% Inhibition” value was found to be 14% and the Z score is -2.23.

`CCOC(=O)N1CCC(NC(=O)c2cc(C(=O)Nc3cccc(CC)c3)ccc2CO)CC1`: the “% Inhibition” value was -8% and the Z score is on record as 1.28.

On to `CC1(C#N)CCN(C(=O)c2ccc3c(c2)C(C)(C)CO3)CC1`, for which the “% Inhibition” value is given as -18% and the Z score is recorded as 2.24.

For `O=C(N[C@H]1CC(=O)N(CCCc2ccccc2)C1)c1ccc2c(c1)OCO2`, the “% Inhibition” value was 6% and the Z score is given as -0.84.

With `CC[C@H](N)C(=O)N1CCC(Cc2ccccc2)C1C` (stereo partly specified), the “% Inhibition” value came out at 0% and the Z score was -0.01.

As for `CC1(C)COCCN1C(=O)c1cnn2cc(Br)cnc12`, the “% Inhibition” value was -3% and the Z score is 0.29.

On to `COCCN1C[C@@H](Cc2cc(CO)ccn2)CC1=O`, for which the “% Inhibition” value was -3% and the Z score came out at 0.44.

Turning to `c1cc(-c2nnc3ccc(N4CCOC5(CCCCCC5)C4)nn23)cs1`, the “% Inhibition” value was 1% and the Z score is -0.2.

In the case of `CCOC(=O)c1cc(-c2ccccc2)n(-c2cccc(C(=O)NC3CCCC(C)C3C)c2)c1C` (stereo unspecified), the “% Inhibition” value is recorded as -5% and the Z score came out at 0.74.

For `CC(C)=Cc1oc2c(Cl)cc(Cl)cc2c1N1CCN(C)CC1`, the “% Inhibition” value was -3% and the Z score amounted to 0.37.

For the molecule `CCN1CC2(CCN(C(=O)c3cccnc3)CC2)C[C@@H](c2ccccc2)C1=O`, the “% Inhibition” value is 2% and the Z score is -0.25.

Take `O=C1CC[C@@H](C(=O)N2CCC(OCc3ccc(Cl)c(Cl)c3)CC2)N1`: the “% Inhibition” value is 1% and the Z score was -0.09.

As for `CNc1nc(CN2CCC[C@H]2c2nc3ccccc3s2)cs1`, the “% Inhibition” value was -4% and the Z score is reported as 0.71.

As for `CCOC(=O)[C@@H]1CN(C(=O)CC(C)C)CCN1C(=O)CC(C)C`, the “% Inhibition” value is reported as -4% and the Z score came out at 0.36.

On to `N#Cc1c(COC(=O)c2ccc3cn[nH]c3c2)cn2ccccc12`, for which the “% Inhibition” value is -9% and the Z score worked out at 1.4.

`CC(C)(C)Oc1cccc(CN2CCc3nccc(N)c3C2)n1`: the “% Inhibition” value amounted to 0% and the Z score worked out at 0.03.

Consider `Cc1c(-c2ccc(Br)cc2)nn(C2CCCC2)c1-c1ccc(Br)cc1`, for which the “% Inhibition” value was found to be 28% and the Z score is recorded as -3.22.

With `O=C(CNC(=O)c1ccc(Cl)cc1)Nc1ccc2[nH]c(=O)[nH]c2c1`, the “% Inhibition” value was 30% and the Z score is reported as -0.27.

Consider `NC(=O)C1CCCCC1NCc1nc(C2CCCC2)no1` (stereo unspecified), for which the “% Inhibition” value is -1% and the Z score was found to be 0.17.

As to `Cc1cc(NC(=O)NC[C@H]2CCCS(=O)(=O)C2)no1`, the “% Inhibition” value is 27% and the Z score is reported as -3.08.

With `Cc1cc(Oc2nc(N3CCCC3)nc3c2CN(S(=O)(=O)c2ccccc2)CC3)ccc1F`, the “% Inhibition” value was -2% and the Z score came to 0.23.

As for `CCc1nc2ccccc2c(=O)n1Cc1noc([C@H](C)NC(=O)c2ccccc2)n1`, the “% Inhibition” value is reported as -6% and the Z score stood at 0.67.

Take `CCn1nc(CN[C@H]2CCOC2)c2ccccc21`: the “% Inhibition” value is listed as -10% and the Z score is given as 1.89.

With `O=C(Nc1c(F)cccc1F)N1CCC[C@H](Oc2ccncc2)C1`, the “% Inhibition” value stood at 5% and the Z score is listed as -0.62.

Turning to `O=C(Cn1ncc2c([nH]c3ccccc32)c1=O)N1CCN(c2ccccn2)CC1`, the “% Inhibition” value was found to be 2% and the Z score was -0.32.

Regarding `O=C1CC[C@H](C(=O)N2CCN(Cc3ccc4c(c3)OCO4)CC2)CN1`, the “% Inhibition” value was -38% and the Z score worked out at 4.47.

Turning to `O=C1c2ccccc2C(=O)N1CCCN1CCC[C@H](C(F)(F)F)C1`, the “% Inhibition” value was -9% and the Z score is recorded as 1.33.

As for `CC1OCCC1NCCOc1ccccc1Cl` (stereo unspecified), the “% Inhibition” value is listed as -12% and the Z score amounted to 1.76.

Take `C=CCn1cc(CN(CC)Cc2noc(C)n2)c(C)n1`: the “% Inhibition” value is -5% and the Z score stood at 0.63.

Take `COCCN1CCC(CN2CCO[C@H](c3ccc(Cl)cc3)C2)CC1`: the “% Inhibition” value is listed as -7% and the Z score amounted to 0.81.

`CC(=O)c1cccc(NC(=O)N2C3CCC2CN(C)C3)c1`: the “% Inhibition” value is 27% and the Z score is listed as -3.04.

Turning to `O=C(c1cc2cc(F)ccc2s1)N1C2CCC1CC(Oc1cccnc1)C2` (stereo unspecified), the “% Inhibition” value is given as -6% and the Z score is 0.7.

With `CCC(C)C(NCC(O)COC)c1nc(-c2ccc3c(c2)OCO3)no1` (stereo unspecified), the “% Inhibition” value is given as -1% and the Z score is on record as 0.2.

`Cn1nccc1NCc1ccc(Br)c2cccnc12`: the “% Inhibition” value came to 5% and the Z score is recorded as -0.67.

Consider `COc1cccc(CNS(=O)(=O)c2cc(-c3nnc(C(=O)N4CCCC4)o3)sc2C)c1`, for which the “% Inhibition” value is listed as -7% and the Z score is 0.99.

As for `COC[C@@H]1OC[C@@]2(C)C3CC[C@@H](O)[C@@H](CC(=O)N4CCC(C)CC4)[C@]3(C)CC[C@H]2O1` (stereo partly specified), the “% Inhibition” value is -1% and the Z score was determined as 0.17.

Consider `Cc1ncc(CN(C)C(=O)Nc2ccc(F)c(NC(=O)C3CCCCC3)c2)s1`, for which the “% Inhibition” value is reported as -6% and the Z score is on record as 0.57.

Take `O=C(CCN1CCOC1=O)NC1CC1c1ccccc1C(F)(F)F` (stereo unspecified): the “% Inhibition” value is listed as -21% and the Z score was found to be 1.97.

In the case of `COc1ccc2nc(CS(=O)(=O)Cc3nnc(C4CCC4)n3C)sc2c1`, the “% Inhibition” value is listed as -5% and the Z score came to 0.77.
